Source: the supplement of paper PMC3694890
± gives the uncertainty stated by the source. The list shows a part of the results. Phosphotyrosine is written y.

biological target: GRB2 (endogenous complexes from cell lysate), P62993; test: GRB2 complex binding differential signal (pY peptide minus Ala control peptide) (fluorescence intensity units); higher = stronger GRB2 complex binding; details: MCF7
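Further: phosphopeptide probes on the chip at 1–4 µM, lysate proteins bound in 20 mM Tris pH 7.0 buffer with 140 mM NaCl, 1% Triton X-100 and 5% glycerol.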

Q: Which “GRB2 complex binding differential signal” value does the source give for ySDHRY [BSN_2067/A1] here?
A: The value was 703 ± 350.

Q: Which “GRB2 complex binding differential signal” value does the source give for yYGMSS [BSN_3421/A1] here?
A: The value was 158 ± 280.

Q: How did the “GRB2 complex binding differential signal” value turn out when yGMSSR [BSN_3422/A1] was run?
A: Its value is 1760 ± 370.

Q: yDYMPM [BTK_223/A1] was tested. Which “GRB2 complex binding differential signal” value did it give?
A: Its value is -518 ± 970.

Q: yYLAEK [BTK_344/A1] was tested. Which “GRB2 complex binding differential signal” value did it give?
A: Its value is 239 ± 470.

Q: yHQHNS [BTK_361/A1] was tested. Which “GRB2 complex binding differential signal” value did it give?
A: Its value is 1220 ± 360.

Q: Which “GRB2 complex binding differential signal” value does the source give for yPVSQQ [BTK_375/A1] here?
A: Its value is 328 ± 510.

Q: With yGEVYE [ABL1_253/A1] as the binder, how does the “GRB2 complex binding differential signal” value read?
A: The value was 46.6 ± 280.

Q: For yEYDFE [BTK_40/A1], which “GRB2 complex binding differential signal” value is on record?
A: The value was -89.6 ± 400.

Q: For yTSSVG [BTK_551/A1], which “GRB2 complex binding differential signal” value is on record?
A: Its value is 1300 ± 980.

Q: With yMDGHL [CAC1F_1780/A1] as the binder, how does the “GRB2 complex binding differential signal” value read?
A: The value was 656 ± 470.

Q: With yILSME [CASP9_153 /A1] as the binder, how does the “GRB2 complex binding differential signal” value read?
A: Its value is -1590 ± 3100.

Q: With yDVPPR [CBLB_665/A1] as the binder, how does the “GRB2 complex binding differential signal” value read?
A: The value was 4610 ± 800.

Q: yKIPSS [CBLB_709/A1] was tested. Which “GRB2 complex binding differential signal” value did it give?
A: The value was 15200 ± 2700.

Q: yDQLPS [CBLB_889/A1] was tested. Which “GRB2 complex binding differential signal” value did it give?
A: The value was 1320 ± 490.

Q: With yEENSQ [CBL_141/A1] as the binder, how does the “GRB2 complex binding differential signal” value read?
A: Its value is 516 ± 150.

Q: Which “GRB2 complex binding differential signal” value does the source give for yCEMGS [CBL_371/A1] here?
A: Its value is 287 ± 220.

same assay, conditions: MCF10A

Q: ySDHRY [BSN_2067/A1] was tested. Which “GRB2 complex binding differential signal” value did it give?
A: Its value is 467 ± 340.

Q: Which “GRB2 complex binding differential signal” value does the source give for yYGMSS [BSN_3421/A1] here?
A: Its value is 80.9 ± 240.

Q: With yGMSSR [BSN_3422/A1] as the binder, how does the “GRB2 complex binding differential signal” value read?
A: The value was 561 ± 340.

Q: Which “GRB2 complex binding differential signal” value does the source give for yDYMPM [BTK_223/A1] here?
A: Its value is 59.9 ± 250.

Q: How did the “GRB2 complex binding differential signal” value turn out when yYLAEK [BTK_344/A1] was run?
A: Its value is 63.1 ± 370.

Q: For yHQHNS [BTK_361/A1], which “GRB2 complex binding differential signal” value is on record?
A: Its value is 57.7 ± 460.

Q: yPVSQQ [BTK_375/A1] was tested. Which “GRB2 complex binding differential signal” value did it give?
A: The value was 837 ± 330.

Q: For yGEVYE [ABL1_253/A1], which “GRB2 complex binding differential signal” value is on record?
A: The value was -44.5 ± 420.

Q: For yEYDFE [BTK_40/A1], which “GRB2 complex binding differential signal” value is on record?
A: Its value is 57.1 ± 410.

Q: With yTSSVG [BTK_551/A1] as the binder, how does the “GRB2 complex binding differential signal” value read?
A: The value was 1900 ± 410.

Q: How did the “GRB2 complex binding differential signal” value turn out when yMDGHL [CAC1F_1780/A1] was run?
A: Its value is 358 ± 260.

Q: With yILSME [CASP9_153 /A1] as the binder, how does the “GRB2 complex binding differential signal” value read?
A: The value was 11 ± 620.

Q: How did the “GRB2 complex binding differential signal” value turn out when yDVPPR [CBLB_665/A1] was run?
A: The value was 2730 ± 530.

Q: Which “GRB2 complex binding differential signal” value does the source give for yKIPSS [CBLB_709/A1] here?
A: The value was 6970 ± 710.

Q: With yDQLPS [CBLB_889/A1] as the binder, how does the “GRB2 complex binding differential signal” value read?
A: Its value is 1090 ± 430.

Q: For yEENSQ [CBL_141/A1], which “GRB2 complex binding differential signal” value is on record?
A: The value was 981 ± 480.

Q: yCEMGS [CBL_371/A1] was tested. Which “GRB2 complex binding differential signal” value did it give?
A: Its value is 20.9 ± 150.

same assay, conditions: MDA-MB-231

Q: How did the “GRB2 complex binding differential signal” value turn out when ySDHRY [BSN_2067/A1] was run?
A: The value was 314 ± 260.

Q: With yYGMSS [BSN_3421/A1] as the binder, how does the “GRB2 complex binding differential signal” value read?
A: The value was 926 ± 460.

Q: Which “GRB2 complex binding differential signal” value does the source give for yGMSSR [BSN_3422/A1] here?
A: Its value is 435 ± 290.

Q: For yDYMPM [BTK_223/A1], which “GRB2 complex binding differential signal” value is on record?
A: Its value is 429 ± 300.

Q: How did the “GRB2 complex binding differential signal” value turn out when yYLAEK [BTK_344/A1] was run?
A: Its value is 360 ± 550.

Q: yHQHNS [BTK_361/A1] was tested. Which “GRB2 complex binding differential signal” value did it give?
A: Its value is 653 ± 320.

Q: How did the “GRB2 complex binding differential signal” value turn out when yPVSQQ [BTK_375/A1] was run?
A: Its value is 443 ± 370.

Q: For yGEVYE [ABL1_253/A1], which “GRB2 complex binding differential signal” value is on record?
A: The value was 196 ± 290.

Q: With yEYDFE [BTK_40/A1] as the binder, how does the “GRB2 complex binding differential signal” value read?
A: The value was 0.592 ± 190.

Q: For yTSSVG [BTK_551/A1], which “GRB2 complex binding differential signal” value is on record?
A: Its value is 1100 ± 390.

Q: With yMDGHL [CAC1F_1780/A1] as the binder, how does the “GRB2 complex binding differential signal” value read?
A: Its value is 271 ± 230.

Q: yILSME [CASP9_153 /A1] was tested. Which “GRB2 complex binding differential signal” value did it give?
A: The value was 869 ± 360.

Q: For yDVPPR [CBLB_665/A1], which “GRB2 complex binding differential signal” value is on record?
A: The value was 923 ± 430.

Q: Which “GRB2 complex binding differential signal” value does the source give for yKIPSS [CBLB_709/A1] here?
A: Its value is 1850 ± 1400.

Q: How did the “GRB2 complex binding differential signal” value turn out when yDQLPS [CBLB_889/A1] was run?
A: Its value is 753 ± 410.

Q: yEENSQ [CBL_141/A1] was tested. Which “GRB2 complex binding differential signal” value did it give?
A: Its value is 590 ± 350.

Q: With yCEMGS [CBL_371/A1] as the binder, how does the “GRB2 complex binding differential signal” value read?
A: Its value is 133 ± 320.

same assay, conditions: T47D

Q: For ySDHRY [BSN_2067/A1], which “GRB2 complex binding differential signal” value is on record?
A: Its value is 1470 ± 1500.

Q: For yYGMSS [BSN_3421/A1], which “GRB2 complex binding differential signal” value is on record?
A: The value was 2320 ± 1100.

Q: How did the “GRB2 complex binding differential signal” value turn out when yGMSSR [BSN_3422/A1] was run?
A: The value was 619 ± 1500.

Q: For yDYMPM [BTK_223/A1], which “GRB2 complex binding differential signal” value is on record?
A: The value was 338 ± 1000.

Q: For yYLAEK [BTK_344/A1], which “GRB2 complex binding differential signal” value is on record?
A: The value was 1010 ± 1300.

Q: Which “GRB2 complex binding differential signal” value does the source give for yHQHNS [BTK_361/A1] here?
A: Its value is 835 ± 1000.

Q: yPVSQQ [BTK_375/A1] was tested. Which “GRB2 complex binding differential signal” value did it give?
A: Its value is 420 ± 970.

Q: yGEVYE [ABL1_253/A1] was tested. Which “GRB2 complex binding differential signal” value did it give?
A: The value was 14.6 ± 850.

Q: yEYDFE [BTK_40/A1] was tested. Which “GRB2 complex binding differential signal” value did it give?
A: Its value is 159 ± 1200.

Q: yTSSVG [BTK_551/A1] was tested. Which “GRB2 complex binding differential signal” value did it give?
A: Its value is 1330 ± 1800.

Q: Which “GRB2 complex binding differential signal” value does the source give for yMDGHL [CAC1F_1780/A1] here?
A: The value was 410 ± 1100.

Q: For yILSME [CASP9_153 /A1], which “GRB2 complex binding differential signal” value is on record?
A: The value was 358 ± 1100.

Q: With yDVPPR [CBLB_665/A1] as the binder, how does the “GRB2 complex binding differential signal” value read?
A: The value was 681 ± 2000.

Q: yKIPSS [CBLB_709/A1] was tested. Which “GRB2 complex binding differential signal” value did it give?
A: The value was 3380 ± 1600.

Q: For yDQLPS [CBLB_889/A1], which “GRB2 complex binding differential signal” value is on record?
A: The value was 1400 ± 1200.

Q: How did the “GRB2 complex binding differential signal” value turn out when yEENSQ [CBL_141/A1] was run?
A: Its value is 164 ± 1600.

Q: yCEMGS [CBL_371/A1] was tested. Which “GRB2 complex binding differential signal” value did it give?
A: The value was 336 ± 1200.
